Experimental data from the supplement of paper PMC4604168 (melanoma cell lines).
Some of the results follow. Many values rest on one well or one pass, so single values are uncertain.

What was measured:
Experiment in all cases: cell count relative to DMSO control; melanoma cells; higher = more viable cells
Settings in all cases: library dose: low library concentration; 72 h
MZ2-MEL = test system: MZ2-MEL
MeWo = test system: MeWo
RPMI7951 = test system: RPMI7951
RVH-421 = test system: RVH-421
SkMel28 = test system: SkMel28
SkMel2 = test system: SkMel2
SkMel30 = test system: SkMel30
SkMel5 = test system: SkMel5
UACC257 = test system: UACC257
UACC62 = test system: UACC62
WM115 = test system: WM115
WM1716 = test system: WM1716
WM1745 = test system: WM1745
WM3526 = test system: WM3526
WM3619 = test system: WM3619
WM451Lu = test system: WM451Lu
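Also: cell number obtained by counting DAPI-stained nuclei in high-throughput microscope images with image analysis software, screen run in 1,536-well plates.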

Row | Structure (SMILES) | cell count (MZ2-MEL) [%] | cell count (MeWo) [%] | cell count (RPMI7951) [%] | cell count (RVH-421) [%] | cell count (SkMel28) [%] | cell count (SkMel2) [%] | cell count (SkMel30) [%] | cell count (SkMel5) [%] | cell count (UACC257) [%] | cell count (UACC62) [%] | cell count (WM115) [%] | cell count (WM1716) [%] | cell count (WM1745) [%] | cell count (WM3526) [%] | cell count (WM3619) [%] | cell count (WM451Lu) [%]
1 | C[C@@H](Oc1cc(-c2cnn(C3CCNCC3)c2)cnc1N)c1c(Cl)ccc(F)c1Cl [Crizotinib] + Cn1cncc1[C@@](N)(c1ccc(Cl)cc1)c1ccc2c(c1)c(-c1cccc(Cl)c1)cc(=O)n2C [tipifarnib] (first compound 0.2 µM, partner dose 0.01 µM) | 99.5 | 77.4 | 81.8 | 95.9 | 83.3 | 84.7 | 94.7 | 88.4 | 76.2 | 63.5 | 74 | 84.1 | 82.4 | 76.8 | 96.7 | 80
2 | CS(=O)(=O)CCNCc1ccc(-c2ccc3ncnc(Nc4ccc(OCc5cccc(F)c5)c(Cl)c4)c3c2)o1 [lapatinib] + N#Cc1c(O)c2c(-c3ccc(-c4ccccc4O)cc3)csc2[nH]c1=O [A769662] (first compound 0.8 µM, partner dose 2 µM) | 100 | 102 | 96.7 | 94 | 100 | 97.9 | 93 | 119 | 97.1 | 93 | 95.7 | 117 | 119 | 85.5 | 130 | 101
3 | C=CCNC1=C2C[C@@H](C)C[C@H](OC)[C@H](O)[C@@H](C)/C=C(\C)[C@H](OC(N)=O)[C@@H](OC)/C=C\C=C(/C)C(=O)NC(=CC1=O)C2=O [Tanespimycin] + N#Cc1c(O)c2c(-c3ccc(-c4ccccc4O)cc3)csc2[nH]c1=O [A769662] (first compound 0.002 µM, partner dose 2 µM) | 100 | 97.9 | 99.1 | 83 | 89.6 | 105 | 108 | 85.8 | 108 | 105 | 90.7 | 105 | 81.8 | 91.7 | 83.6 | 93.5
4 | C=CCNC1=C2C[C@@H](C)C[C@H](OC)[C@H](O)[C@@H](C)/C=C(\C)[C@H](OC(N)=O)[C@@H](OC)/C=C\C=C(/C)C(=O)NC(=CC1=O)C2=O [Tanespimycin] + NCC(=O)Nc1ccc(-n2nc(C(F)(F)F)cc2-c2ccc3c(ccc4ccccc43)c2)cc1 [OSU03012] (first compound 0.002 µM, partner dose 1 µM) | 92.9 | 56 | 102 | 97.3 | 79.4 | 71.2 | 53.2 | 85.3 | 91.6 | 90.5 | 74.8 | 89.5 | 100 | 46.5 | 99.1 | 56.7
5 | C=CCNC1=C2C[C@@H](C)C[C@H](OC)[C@H](O)[C@@H](C)/C=C(\C)[C@H](OC(N)=O)[C@@H](OC)/C=C\C=C(/C)C(=O)NC(=CC1=O)C2=O [Tanespimycin] + Cn1cncc1[C@@](N)(c1ccc(Cl)cc1)c1ccc2c(c1)c(-c1cccc(Cl)c1)cc(=O)n2C [tipifarnib] (first compound 0.002 µM, partner dose 0.01 µM) | 109 | 81.4 | 43.5 | 76.1 | 93 | 83.3 | 83.5 | 98.5 | 51.8 | 78.4 | 76.1 | 70.7 | 85.6 | 86.6 | 94.2 | 84.3
6 | C[C@@H](Oc1cc(-c2cnn(C3CCNCC3)c2)cnc1N)c1c(Cl)ccc(F)c1Cl [Crizotinib] + Oc1nc(-c2ccc(C(F)(F)F)cc2)nc2c1CSCC2 [XAV939] (first compound 0.2 µM, partner dose 2 µM) | 95.1 | 100 | 110 | 87.7 | 106 | 91.7 | 102 | 86.7 | 79.6 | 94.1 | 88.5 | 62.7 | 89.3 | 123 | 90.8 | 93.1
7 | CNC(=O)c1cc(Oc2ccc(NC(=O)Nc3ccc(Cl)c(C(F)(F)F)c3)cc2)ccn1 [sorafenib] + NCC(=O)Nc1ccc(-n2nc(C(F)(F)F)cc2-c2ccc3c(ccc4ccccc43)c2)cc1 [OSU03012] (first compound 0.4 µM, partner dose 1 µM) | 87.6 | 57.2 | 89.9 | 76.5 | 80.7 | 80.5 | 59.1 | 91.8 | 109 | 84.5 | 90.5 | 93.6 | 87.8 | 52.3 | 119 | 56
8 | CS(=O)(=O)CCNCc1ccc(-c2ccc3ncnc(Nc4ccc(OCc5cccc(F)c5)c(Cl)c4)c3c2)o1 [lapatinib] + COc1cc2ncnc(Nc3ccc(Oc4ccccc4)cc3)c2cc1OC [SrcI1] (first compound 0.8 µM, partner dose 2 µM) | 89.7 | 109 | 92.4 | 112 | 87.1 | 98.9 | 92.1 | 95 | 118 | 108 | 101 | 135 | 97.5 | 105 | 95.7 | 95.1
9 | CN1CCN(c2ccc3nc(-c4c(N)c5c(F)cccc5[nH]c4=O)[nH]c3c2)CC1 [Dovitinib] + Cc1cc(N2CCOCC2)cc2[nH]c(-c3c(NC[C@@H](O)c4cccc(Cl)c4)cc[nH]c3=O)nc12 [BMS536924] (first compound 0.1 µM, partner dose 0.2 µM) | 81.1 | 78.4 | 112 | 94.9 | 104 | 88.5 | 75.5 | 84.3 | 71.4 | 81.9 | 93.6 | 103 | 70.7 | 67.7 | 71.8 | 96
10 | CN1CCN(c2ccc3nc(-c4c(N)c5c(F)cccc5[nH]c4=O)[nH]c3c2)CC1 [Dovitinib] + Oc1nc(-c2ccc(C(F)(F)F)cc2)nc2c1CSCC2 [XAV939] (first compound 0.1 µM, partner dose 2 µM) | 92.9 | 90.1 | 97.2 | 79 | 80.5 | 97.2 | 93.6 | 84.3 | 91.8 | 78 | 89.9 | 66.8 | 75.3 | 97.5 | 100 | 127
11 | C[C@@H](Oc1cc(-c2cnn(C3CCNCC3)c2)cnc1N)c1c(Cl)ccc(F)c1Cl [Crizotinib] + COc1cc2ncnc(Nc3ccc(Oc4ccccc4)cc3)c2cc1OC [SrcI1] (first compound 0.2 µM, partner dose 2 µM) | 91.7 | 89 | 93 | 139 | 83.3 | 99.4 | 101 | 101 | 86.9 | 110 | 93.7 | 124 | 91.7 | 97.3 | 76.9 | 113
12 | CN1CCN(c2ccc3nc(-c4c(N)c5c(F)cccc5[nH]c4=O)[nH]c3c2)CC1 [Dovitinib] + C[C@@H]1CCN(C(=O)CC#N)C[C@@H]1N(C)c1ncnc2[nH]ccc12 [CP690550] (first compound 0.1 µM, partner dose 1 µM) | 90.9 | 92.2 | 106 | 104 | 94.7 | 96.3 | 115 | 94.4 | 105 | 96.5 | 92.2 | 103 | 84.6 | 130 | 99.6 | 92.8
13 | C[C@@H](Oc1cc(-c2cnn(C3CCNCC3)c2)cnc1N)c1c(Cl)ccc(F)c1Cl [Crizotinib] + O=C1NC(=O)/C(=C/c2ccc(-c3ccc(F)cc3O)o2)S1 [AS252424] (first compound 0.2 µM, partner dose 1 µM) | 102 | 92.7 | 108 | 128 | 101 | 87.2 | 104 | 96.6 | 116 | 89.7 | 94.1 | 128 | 107 | 98.6 | 83.7 | 96.4
14 | CS(=O)(=O)CCNCc1ccc(-c2ccc3ncnc(Nc4ccc(OCc5cccc(F)c5)c(Cl)c4)c3c2)o1 [lapatinib] + Oc1cc(-c2nc(-c3ccccc3)[nH]c2-c2ccncc2)ccc1Cl [L779450] (first compound 0.8 µM, partner dose 0.2 µM) | 73.3 | 89.7 | 72.9 | 133 | 89 | 99 | 78.4 | 104 | 95.7 | 76.6 | 89.7 | 119 | 91.1 | 76.8 | 75.5 | 108
15 | C=CCNC1=C2C[C@@H](C)C[C@H](OC)[C@H](O)[C@@H](C)/C=C(\C)[C@H](OC(N)=O)[C@@H](OC)/C=C\C=C(/C)C(=O)NC(=CC1=O)C2=O [Tanespimycin] + Cc1ccc(NC(=O)c2cccc(N(C)C)c2)cc1NC(=O)c1ccc(O)cc1 [ZM336372] (first compound 0.002 µM, partner dose 2 µM) | 77.5 | 112 | 92.9 | 107 | 99.5 | 110 | 96.2 | 105 | 103 | 96.6 | 123 | 119 | 91.6 | 112 | 113 | 107
16 | CS(=O)(=O)CCNCc1ccc(-c2ccc3ncnc(Nc4ccc(OCc5cccc(F)c5)c(Cl)c4)c3c2)o1 [lapatinib] + NC(=O)Nc1cc(-c2cccc(F)c2)sc1C(=O)N[C@H]1CCCNC1 [AZD7762] (first compound 0.8 µM, partner dose 0.02 µM) | 106 | 104 | 96.7 | 121 | 98.4 | 110 | 82.4 | 113 | 119 | 96.9 | 98.7 | 75.9 | 83.7 | 92.1 | 38.8 | 93.1
17 | CN1CCN(c2ccc3nc(-c4c(N)c5c(F)cccc5[nH]c4=O)[nH]c3c2)CC1 [Dovitinib] + O=C(Nc1ccccc1)c1cc([N+](=O)[O-])ccc1Cl [GW9662] (first compound 0.1 µM, partner dose 2 µM) | 99.5 | 94.1 | 89.7 | 122 | 102 | 112 | 81.4 | 110 | 84.9 | 94.3 | 120 | 97 | 90.3 | 77.6 | 114 | 101
18 | CNC(=O)c1cc(Oc2ccc(NC(=O)Nc3ccc(Cl)c(C(F)(F)F)c3)cc2)ccn1 [sorafenib] + CCCCCCCCCCCC1=C(O)C(=O)C=C(O)C1=O [Embelin] (first compound 0.4 µM, partner dose 1.2 µM) | 103 | 102 | 87.7 | 81.9 | 109 | 97 | 112 | 105 | 104 | 110 | 108 | 93.8 | 91.6 | 135 | 99.7 | 99.1
